According to PubChem BioAssay AID493208 (National Center for Advancing Translational Sciences (NCATS), 2011):
The whole screen tested about 44,000 compounds, of which about 340 (0.77%) were called active. Another 5% or so got no clear call; they are omitted. Calls come from the whole dose curve; as a rule, active = well fitted inhibition curve with a large enough effect; inconclusive = small, poorly fitted or top-dose-only effect; inactive = flat fitted curve, though single readings scatter. This is one part of the list.

Experiment: Acumen qHTS Assay for Inhibitors of the mTORC1 Signaling Pathway in MEF (Tsc2-/-, p53-/-) Cells: Sytravon;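 note: plate controls were DMSO for no effect and rapamycin for full effect; nearly all actives have a fitted effect of over 50% in size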
Conditions: phospho-rpS6 immunofluorescence/PI, 24 h; series mostly up to 38.3 µM; activity change, negative = inhibition: at the top concentration
Procedure, shortened: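 Immunofluorescence of rpS6 phosphorylation in Tsc2-/-, p53-/- MEFs after 24 h compound exposure, normalized to propidium iodide signal. Activity is expressed as % positive cells, thresholded with 7.5 nM rapamycin.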

Activity change, negative = inhibition, inactive:
COc1ccc(NC(C)=O)cc1NC(=O)CN1CCN(c2ccc(F)cc2)CC1 0%, O=S(=O)(c1cccc2ccccc12)N1CCN(c2ccc(Cl)c(Cl)c2)CC1 -2.27%, CCOc1cc(C(=O)NCC(c2ccc(N(C)C)cc2)N2CCOCC2)cc(OCC)c1OCC (configuration not stated) 4.68%, CCOc1ccc(CNCc2c(C(=O)O)c(C)n(Cc3c(F)cccc3Cl)c2C)cc1OC -4.49%, Cc1ccc(-c2cn3c(n2)sc2cc(C(=O)NCCCc4ccccc4)ccc23)c(C)c1 4.24%, CC1CCCN(S(=O)(=O)c2ccc3c(c2)c(=O)nc2ccccn23)C1 (configuration not stated) 5.25%, CC(C)c1ccc(S(=O)(=O)N2CCC(N3CCN(Cc4ccccc4)C(=O)C3=O)CC2)cc1 2.2%, CC(CCc1ccccc1)NC(=O)Cn1c(=O)nc(-c2ccccc2)c2ccccc21 (configuration not stated) 0%, CCOC(=O)c1cnc2c(C)c(Cl)ccc2c1Nc1ccc(N2CCOCC2)cc1 -2.48%, Cc1cc(C)c(S(=O)(=O)NCC(c2ccc(N(C)C)cc2)N2CCOCC2)c(C)c1 (configuration not stated) 0.998%, Cc1ccc2oc(=O)n(CCCOc3ccccc3Cl)c2c1 13%, COc1ccccc1-c1noc(-c2ccc(NCC3CCCO3)c([N+](=O)[O-])c2)n1 (configuration not stated) 0%, CCc1cccc(NC(=O)CN(C)S(=O)(=O)c2ccc3c(c2)CCCN3C(C)=O)c1 -2.16%, COc1ccc(C2=C(Nc3ccc(C)cc3C)c3ccccc3C2=O)cc1 -2.87%, CCCCN(C)CCNC(=O)CN1C(=O)CSc2ccc(S(=O)(=O)N3CCOCC3)cc21 4.5%, CCc1nn2c(=O)c(S(=O)(=O)Nc3ccc(Cl)cc3)c(C)nc2s1 7.81%, Cc1ccccc1Nc1c(-c2cccnc2)nc2ccc(Cl)cn12 2.86%, Cc1ccc(OCC(=O)Nc2nnc(S(=O)(=O)N3CCCCCC3)s2)cc1 0%, O=C(NCc1ccc(F)cc1)C1(c2cccs2)CCOCC1 -2.52%, COc1cc(Nc2nc3c(S(=O)(=O)c4ccc(C)c(C)c4)nnn3c3ccsc23)cc(OC)c1 -5.27%, CCOC(=O)c1c(NC(=O)C2c3ccccc3Oc3ccccc32)sc(C)c1CC 0.695%, CCn1c(=O)cc(OCC(=O)N(C)c2cc(Cl)ccc2C)c2ccccc21 -4.82%, COC(=O)c1ccccc1NC(=O)N1CCC(N2CCN(Cc3ccc(F)cc3)C(=O)C2=O)CC1 2.92%, CC(C)(C)C1CCc2nc(NC(=O)Cc3ccccc3)sc2C1 (configuration not stated) -0.518%, COc1ccccc1N1C(=O)N(CC(=O)C(C)(C)C)c2ccccc2S1(=O)=O 0.688%, CN(C)CCNC(=O)c1ccc(-c2nn(C)c(=O)c3ccccc23)cc1 -4.71%, O=C1CN(C(=O)COc2ccc(Cl)cc2Cl)C(c2ccccc2)c2cc(F)ccc2N1 (configuration not stated) 0%, CCOc1ccc(CCNC(=O)c2nn(C)c3c2CSc2ccccc2-3)cc1 3.32%, CCOc1ccccc1CNC(=O)CCCn1ccc2cc(S(=O)(=O)N3CCCC3)ccc21 -9.27%, O=C(O)c1ccc(NC(=O)c2cc(S(=O)(=O)N3CCCCC3)c(Cl)cc2Cl)cc1 2.62%, Cc1cccc(C(=O)NNc2ncnc3c2cnn3-c2ccc(C)cc2C)c1 -15.5%, CC(C)c1ccc(S(=O)(=O)c2cnc(SCC(=O)Nc3ccc4c(c3)OCCO4)[nH]c2=O)cc1 -1.3%, COc1cccc(C(=O)Nc2nnc(S(=O)(=O)N3CCCC3)s2)c1 2.47%, Cc1ccc(Cn2cnc3nc4c(cc3c2=O)CC(C)CC4)cc1 (configuration not stated) -3.4%, CCCNC(=O)CN1C(=O)CSc2ccc(S(=O)(=O)N3CCC(C)CC3)cc21 -0.421%, CCC(C)NC(=O)CCCc1nnc2n(CC(C)C)c(=O)c3sccc3n12 (configuration not stated) 0.126%, CCN(CC)C(=O)C1CCN(S(=O)(=O)c2c(C)noc2/C=C/c2cccc(OC)c2)CC1 -0.548%, CCOc1ccc(NC(=O)c2cc(S(=O)(=O)NC3CCCCCC3)ccc2F)cc1 -0.188%, Cc1ccccc1-c1noc(-c2ccc(NCc3ccco3)c([N+](=O)[O-])c2)n1 5.05%, COc1ccc2c(c1)CCc1c(C(=O)Nc3c(C)nn(Cc4ccccc4)c3C)noc1-2 -17%, COc1ccc2c(Sc3ccc(C)cc3)c(C(=O)NC(C)C)[nH]c2c1 -13.8%, CCOc1ccccc1NC(=O)CSc1nccn1-c1cccc(C)c1 0.307%, CCOc1ccc(-n2c(=O)c3c(C)c(C)sc3n(CC(=O)NCCc3ccccc3)c2=O)cc1 -1.19%, CCOc1ccc(C2CC(=O)c3c([nH]c(C(=O)OCC4CCCCC4)c3C)C2)cc1 (configuration not stated) 2.66%, Cc1ccc(S(=O)(=O)C(CNC(=O)C(=O)NCCc2ccccc2)c2cccs2)cc1 (configuration not stated) -11.1%, O=c1oc2ccccc2c(N2CCN(c3ccccc3F)CC2)c1CN1CCCC1 8.18%, COCCCNC(=O)c1nn(-c2ccc(C)cc2)nc1CO -2.75%, Cc1cccc(CNC(=O)Cn2ccc3cc(S(=O)(=O)N4CCCCCC4)ccc32)c1 -10.7%, COc1cccc(NC(=O)C(Cc2ccccc2)NS(=O)(=O)c2ccc3c(c2)c(=O)n(C)c(=O)n3C)c1 (configuration not stated) -1.82%, CCCc1cc(=O)oc2cc(C)c3c(-c4ccccc4)coc3c12 -0.853%, O=C(CN1C(=O)CSc2ccc(S(=O)(=O)N3CCCC3)cc21)Nc1cccc(Cl)c1 -6.63%, Cc1ccc(NC(=O)CC2Nc3ccccc3NC2=O)cc1C (configuration not stated) 2.89%, Cc1ccccc1C(=O)N(Cc1sccc1C)C1CCS(=O)(=O)C1 (configuration not stated) 2.68%, COc1ccc(CCNC(=O)c2ccc(Cn3c(=O)c4ccccc4n(CC(=O)C(C)(C)C)c3=O)cc2)cc1OC -0.0697%, COc1cc(NC(=O)CCn2nc(C)c(S(=O)(=O)N3CCCCC3)c2C)cc(OC)c1OC 2.59%, Cc1ccc(Cl)cc1NC(=O)CCCn1c(=O)c2cccn2c2cccnc21 -3.45%, COc1ccccc1NC(=O)C1=C(C)Nc2c(C(=O)Nc3cccc(C)c3)cnn2C1c1ccccc1Cl (configuration not stated) 5.11%, CC1CCCCN1CCCNC(=O)CN1C(=O)c2cccnc2Oc2ccccc21 (configuration not stated) 0.632%, COc1ccc(-c2nc3n(n2)C(c2ccc(OC)c(OC)c2)C(C(=O)Nc2cccnc2)=C(C)N3)cc1 (configuration not stated) 4.43%, COCCCNC(=O)c1ccc(Cn2c(=O)c3ccccc3n(Cc3c(C)cc(C)cc3C)c2=O)cc1 6.67%, CCN1CCN(C(c2ccc(SC)cc2)c2c(O)cc(C)n(CCOC)c2=O)CC1 (configuration not stated) -10.8%, CCCCN(CC)C(=O)C1CCCN(c2ncnc3onc(C)c23)C1 (configuration not stated) -8.11%, CCOC(=O)c1c(C)[nH]c(C)c1S(=O)(=O)NCC(=O)NCc1cccc(C)c1 -20.8%, O=c1cc(-c2ccc(F)cc2)nc(SCc2nc(-c3ccc(Cl)cc3)no2)[nH]1 0%, CCOC(=O)c1ccc(CN(Cc2ccc(Br)cc2)S(=O)(=O)c2cccc(Cl)c2C)cc1 2.5%, COc1cc(C(=O)NCC(c2ccc(Cl)cc2)N2CCOCC2)cc(OC)c1OC (configuration not stated) -13.9%, CCOC(=O)CC(NC(=O)Cn1nnc(-c2ccccc2F)n1)c1ccccc1Cl (configuration not stated) -4.02%, CCc1ccc(C2C(C(=O)Nc3ccccc3C)=C(C)Nc3nc(SCc4cccc(OC)c4)nn32)cc1 (configuration not stated) -0.0684%, CC(=O)c1ccc(NC(=O)CSc2nc(=O)n(Cc3ccncc3)c3c2CCC3)cc1 -1.97%, Cc1ccc(N2CCN(C(=O)c3cn(C)c4ccc(S(=O)(=O)N(C)C)cc4c3=O)CC2C)cc1 (configuration not stated) -0.403%, O=C(Cn1c(=O)nc(-c2ccccc2)c2ccccc21)NCc1ccccc1Cl 0%, CCS(=O)(=O)c1ncc(N(Cc2ccco2)Cc2ccccc2F)c(C(=O)Nc2cccc(Cl)c2)n1 -3.81%, O=C(CN1N=C(c2ccc(Cl)cc2)CCC1=O)NCCc1ccccc1 6.86%, CC(C)(Oc1ccc(Br)cc1)C(=O)Nc1cc(-c2nc3ccccc3[nH]2)ccc1Cl -2.34%, Cc1ccc(NC(=O)Cn2nc(Cc3ccncc3)c3ccccc3c2=O)c(Cl)c1 -7.42%, CCOc1ccc(NC(=O)c2oc3ccccc3c2NC(=O)c2ccc(OC)cc2OC)cc1 -0.0549%, COc1ccccc1CNC(=O)CN1N=C(c2ccccc2)CCC1=O 9.84%, COc1ccc(CNC(=O)CS(=O)Cc2nc(-c3cccc(C)c3)oc2C)cc1 (configuration not stated) -9.5%, Fc1ccccc1N1CCN(c2nccn3nc(-c4ccc(Br)cc4)cc23)CC1 5.4%, Cc1ccc(S(=O)(=O)NCC2CCC(C(=O)NCCCOC(C)C)CC2)cc1 (configuration not stated) -6.82%, CCCCN(CC)CCNC(=O)c1cc2c(=O)n(CC)c3ccccc3c2s1 -15.3%, CCCCNc1nc2ccccc2c2nc(-c3ccccc3)nn12 -13.9%, Cc1nc(SCCOc2ccccc2F)[nH]c(=O)c1Cc1ccccc1 4.93%, Cc1ccccc1NC(=O)c1oc2c(c1C)-c1nn(Cc3cccc(Cl)c3)cc1CC2 8.71%, Cc1oc(-c2ccc(Cl)cc2)nc1CN1CCCC(C(=O)NCc2ccccc2)C1 (configuration not stated) -1.05%, Cc1ccc(-n2c(COCC(=O)O)nc3cccnc32)cc1 3.77%, Cc1ccc(/C=C(\C#N)C(=O)Nc2cccc(Br)c2)o1 2.52%, Cc1ccc(Cl)cc1N1CCN(C(=O)c2cc3c(=O)oc4ccccc4c3s2)CC1 1.35%, CCN1CCN(C(c2ccccc2Cl)c2c(O)cc(C)n(CCOC)c2=O)CC1 (configuration not stated) -1.26%, CCCCn1c(=O)nc2n(-c3ccc(Br)cc3)c3ccccc3cc-2c1=O -0.74%, Nc1nn(-c2ccccc2)nc1C(=O)OCc1ccccc1 -0.817%, CC1CCCN(CCCNC(=O)Cn2ncc3c([nH]c4ccccc43)c2=O)C1 (configuration not stated) -4.96%, COc1cccc(C(=O)Nc2nc(-c3ccc(Br)cc3)ns2)c1 1.73%, CCOC(=O)Cc1ccc(NC(=O)N(Cc2ccc(CC)cc2)Cc2cn[nH]c2-c2ccc(OC)cc2)cc1 1.64%, Cc1ccccc1OCCn1c(CCNC(=O)C2CCCCC2)nc2ccccc21 -0.793%, Cc1nc2ccc(S(=O)(=O)NCC(=O)Nc3ccc(F)cc3F)cc2s1 -9.69%, Cc1ccc(S(=O)(=O)N2CCN(Cc3nc4ccc(C)cc4o3)CC2)c(C)c1 0%
